Paper PMC4336329 (PLoS ONE, 2015)
Out of some 310,000 compounds screened, about 2,200 (0.71%) showed an effect of 50% or more. Effects have a minus sign here. This is one part of the list.

Target: human ether-à-go-go-related gene (hERG) potassium channel (human, UniProt Q12809)
Assay: primary screen, population patch clamp on CHO cells stably expressing hERG

Sequence of human ether-à-go-go-related gene (hERG) potassium channel (Q12809 whole entry, looked up): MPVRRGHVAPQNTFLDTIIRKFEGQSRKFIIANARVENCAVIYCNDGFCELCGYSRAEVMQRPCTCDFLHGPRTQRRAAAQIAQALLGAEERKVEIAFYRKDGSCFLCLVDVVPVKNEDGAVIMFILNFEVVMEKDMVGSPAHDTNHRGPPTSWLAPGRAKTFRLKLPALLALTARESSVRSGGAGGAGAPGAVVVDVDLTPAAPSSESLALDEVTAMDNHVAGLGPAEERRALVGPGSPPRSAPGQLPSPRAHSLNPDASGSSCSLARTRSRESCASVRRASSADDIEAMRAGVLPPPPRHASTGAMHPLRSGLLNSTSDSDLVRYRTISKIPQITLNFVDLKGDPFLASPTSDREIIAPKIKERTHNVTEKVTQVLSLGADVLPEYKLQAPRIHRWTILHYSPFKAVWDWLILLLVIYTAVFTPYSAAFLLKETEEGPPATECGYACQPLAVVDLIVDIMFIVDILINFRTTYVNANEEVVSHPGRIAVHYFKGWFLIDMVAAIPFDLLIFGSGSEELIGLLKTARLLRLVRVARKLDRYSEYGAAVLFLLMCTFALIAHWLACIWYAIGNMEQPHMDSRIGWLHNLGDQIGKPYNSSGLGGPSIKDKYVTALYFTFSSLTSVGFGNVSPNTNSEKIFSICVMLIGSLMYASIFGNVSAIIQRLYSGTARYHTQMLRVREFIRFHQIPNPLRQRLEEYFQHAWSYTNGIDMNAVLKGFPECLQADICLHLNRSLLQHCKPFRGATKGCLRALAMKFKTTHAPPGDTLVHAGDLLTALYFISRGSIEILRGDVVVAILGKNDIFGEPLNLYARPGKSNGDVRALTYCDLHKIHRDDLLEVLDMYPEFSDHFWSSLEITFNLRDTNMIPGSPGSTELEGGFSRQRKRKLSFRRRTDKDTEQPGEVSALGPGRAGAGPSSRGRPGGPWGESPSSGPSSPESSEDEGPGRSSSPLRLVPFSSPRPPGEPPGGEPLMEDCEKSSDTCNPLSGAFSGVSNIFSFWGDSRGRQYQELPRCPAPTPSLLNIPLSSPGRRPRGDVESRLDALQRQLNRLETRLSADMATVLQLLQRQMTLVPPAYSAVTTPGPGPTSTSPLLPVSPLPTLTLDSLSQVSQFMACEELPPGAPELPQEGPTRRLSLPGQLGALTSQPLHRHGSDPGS

SMILES | hERG current change (%, negative = inhibition) at 1uM [%]
Cl.c1ccc2c(c1)CC(N1CCCCC1)c1ccccc1S2 (stereo not drawn) | 16.1
O=c1cc(-c2ccccc2)nc(SCCOc2ccccc2Cl)[nH]1 | 5.2
CCCCCc1nnc(NC(=O)CN2C(=O)C3CCCCC3C2=O)s1 (stereo not drawn) | -0.34
CCN(CC)S(=O)(=O)c1cccc(-c2nnc(SC(C)C#N)n2Cc2ccccc2)c1 (stereo not drawn) | 4.99
COc1ccc(CNC(=S)Nc2cc(C)ccc2C)cc1 | 8
Cc1cc(C(=O)CSc2nncs2)c(C)n1-c1c(C)n(C)n(-c2ccccc2)c1=O | 13.3
CC1CCN(Cc2ccc(-c3nnn(CC(=O)NC4CCCCC4)n3)cc2)CC1 | 9.74
CSc1nsc2nc(=O)c(/C=C3\C(C)=Nc4ccc(C)cc43)c(N)n12 | 16.7
CCCCCc1ccc(-c2ccc(/C=C/C(=O)O)cc2)nc1 | 8.27
C=CC[N+]1(C)C2CCC1CC(O)C2.[Br-] (stereo not drawn) | 5.61
CCN(CC(=O)NCc1cccs1)C(=O)c1ccc(S(=O)(=O)Nc2ccccc2F)cc1 | -3.35
CCOc1ccc(N(C(C)=O)C2C=CS(=O)(=O)C2)cc1 (stereo not drawn) | 1.17
CCCCC12CN3CC(C)(CN(C1)C3c1ccc([N+](=O)[O-])o1)C2=O (stereo not drawn) | -9.83
COc1ccc(C2=NOC(Cn3nc(C(=O)NCc4ccco4)cc3-c3ccccc3)C2)cc1 (stereo not drawn) | -44
COc1ccc(N2CCN(S(=O)(=O)c3ccc(OC)cc3)CC2)cc1 | 1.07
Cc1c(C(=O)N2CCN(c3ccccc3)CC2)sc2ncnc(N3CCC(C)CC3)c12 | -4.87
COC(=O)C1=C(c2ccc(F)cc2F)C[C@@H]2CC[C@H]1N2C(=O)NCCOc1ccc(OC)cc1 | 15.9
CC(Oc1ccc2ccccc2c1)C(=O)NNC(=O)Nc1ccccc1F (stereo not drawn) | 12.3
CC(=O)NC(Cc1cccc(F)c1)C(=O)NC1CCN(c2ncccc2[N+](=O)[O-])CC1 (stereo not drawn) | 17.9
O=C(Nc1cccnc1)c1c(O)c2c(n(Cc3ccccc3)c1=O)CCCC2 | 8.92
O=C(Nc1ccc(F)c(S(=O)(=O)N2CCOCC2)c1)C1CCCCC1 | 10.9
CCCc1ccc(Oc2cc(Cl)nc(N)n2)cc1 | 2.58
CCCCCNC(=O)c1c[nH]c2ccc(S(=O)(=O)N3CCC4(CC3)OCCO4)cc2c1=O | 10.6
COc1ccc(NC(=O)Nc2ccc3nsnc3c2)cc1 | 4.46
